22 cell lines from the supplement of paper PMC4967469 can be followed below.

The IC50 comes from the fitted curve, where viability falls to half of the control; where the fit passes the top or lowest dose, that dose stands as a limit. For AUC the same curve is integrated over the 256-fold range of doses and scaled to a fraction: 1 means no effect, lower means more sensitive. Any top dose called inferred was calculated from the reported fits.

Compound in one assay: CCNc1cc(NC2CCC(O)CC2)nc(Nc2ccc3c(ccn3Cc3ccccc3)c2)n1 [CGP-082996 (CINK4)]
In words: Viability of human cancer cell lines after 72 h of drug (GDSC screen). To be noted: top dose 5.12 µM; top dose inferred. As for the experimental part:
(§1)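 Human cancer cell lines in 384-well plates, medium with 10% serum, drug for 72 h over a 256-fold dose range (nine 2-fold or five 4-fold steps up to the top dose). Adherent lines were fixed and stained with the nucleic acid dye Syto60, suspension lines read with resazurin; signal relative to control wells, capped at 0 and 100%. One two-parameter sigmoid per drug and line, fitted in a mixed model over all curves with the slope shared within a line.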
One may read the IC50 as the point on the concentration scale where inhibition reaches its midpoint. Consider “NCI-H2081 (small cell lung carcinoma, suspension)”, for which the AUC turned out to be 0.977 and the IC50 is more than 5.12 µM.

As for “NCI-H2135 (non-small cell lung carcinoma, adherent)”, the AUC came out at 0.991 and the IC50 is more than 5.12 µM.

As to NCI-SNU-1 (stomach, suspension), the AUC came out at 0.965 and the IC50 is more than 5.12 µM.

“NKM-1 (acute myeloid leukaemia, suspension)”: the AUC was found to be 0.939 and the IC50 is more than 5.12 µM.

Consider “OCI-AML2 (acute myeloid leukaemia, suspension)”, for which the AUC is 0.913 and the IC50 came out at 4.02 µM.

Take “OCI-M1 (acute myeloid leukaemia, suspension)”: the AUC stood at 0.992 and the half-inhibitory concentration (IC50) was more than 5.12 µM.

As for OMC-1 (cervix, adherent), the AUC is 0.972 and the IC50 was more than 5.12 µM.

As for OPM-2 (myeloma, suspension), the AUC came to 0.969 and the IC50 is more than 5.12 µM.

In the case of “P30-OHK (lymphoblastic leukaemia, suspension)”, the AUC stood at 0.958 and the IC50 is more than 5.12 µM.

On to “P31-FUJ (acute myeloid leukaemia, suspension)”, for which the AUC stood at 0.996 and the IC50 was more than 5.12 µM.

For P32-ISH (Burkitt lymphoma, suspension), the AUC came to 0.892 and the half-inhibitory concentration (IC50) turned out to be 3.42 µM.

With “PF-382 (T-cell lymphoblastic leukaemia, suspension)”, the AUC is 0.842 and the IC50 stood at 2.95 µM.

In the case of PSN1 (pancreas, adherent), the AUC was found to be 0.936 and the IC50 was more than 5.12 µM.

RCC10RGB (kidney, adherent): the AUC turned out to be 0.861 and the IC50 was more than 5.12 µM.

Take REH (B-cell leukaemia, suspension): the AUC is 0.901 and the IC50 was more than 5.12 µM.

For RF-48 (stomach, adherent), the AUC amounted to 0.957 and the IC50 was more than 5.12 µM.

Turning to ROS-50 (B-cell leukaemia, suspension), the AUC turned out to be 0.897 and the IC50 is more than 5.12 µM.

On to “RPMI-6666 (Hodgkin lymphoma, suspension)”, for which the AUC came to 0.901 and the IC50 is more than 5.12 µM.

As to Raji (Burkitt lymphoma, suspension), the AUC is 0.921 and the IC50 is more than 5.12 µM.

In the case of “Ramos-2G6-4C10 (Burkitt lymphoma, suspension)”, the AUC was 0.943 and the IC50 is more than 5.12 µM.

Consider SCH (stomach, adherent), for which the AUC came out at 0.946 and the IC50 was more than 5.12 µM.

As for SF539 (glioma, adherent), the AUC came to 0.853 and the IC50 is 3.4 µM.

Compound in another assay: CC(C)=CC[C@@H](O)C1=CC(=O)c2c(O)ccc(O)c2C1=O [Shikonin]
Described as above. Conditions: top dose 16 µM; top dose inferred. Here is the method: as §1
Take “NCI-H2081 (small cell lung carcinoma, suspension)”: the AUC is 0.58 and the IC50 came to 1.68 µM.

“NCI-H2135 (non-small cell lung carcinoma, adherent)”: the AUC came to 0.531 and the IC50 was determined as 1.21 µM.

For the cell line NCI-SNU-1 (stomach, suspension), the AUC stood at 0.593 and the IC50 came out at 1.81 µM.

With “NKM-1 (acute myeloid leukaemia, suspension)”, the AUC turned out to be 0.209 and the 50% inhibitory concentration (IC50) was found to be 0.134 µM.

Consider “OCI-AML2 (acute myeloid leukaemia, suspension)”, for which the AUC came to 0.268 and the IC50 worked out at 0.269 µM.

Regarding “OCI-M1 (acute myeloid leukaemia, suspension)”, the AUC stood at 0.391 and the IC50 amounted to 0.542 µM.

OMC-1 (cervix, adherent): the AUC stood at 0.594 and the concentration for half-maximal inhibition (IC50) was determined as 1.84 µM.

Turning to OPM-2 (myeloma, suspension), the AUC came out at 0.314 and the IC50 was 0.338 µM.

In the case of “P30-OHK (lymphoblastic leukaemia, suspension)”, the AUC was determined as 0.252 and the IC50 came out at 0.227 µM.

For the cell line “P31-FUJ (acute myeloid leukaemia, suspension)”, the AUC worked out at 0.579 and the IC50 came out at 1.56 µM.

In the case of P32-ISH (Burkitt lymphoma, suspension), the AUC worked out at 0.361 and the IC50 was 0.457 µM.

For the cell line “PF-382 (T-cell lymphoblastic leukaemia, suspension)”, the AUC was found to be 0.441 and the IC50 was found to be 0.706 µM.

For the cell line PSN1 (pancreas, adherent), the AUC is 0.929 and the half-inhibitory concentration (IC50) was more than 16 µM.

As for RCC10RGB (kidney, adherent), the AUC was 0.569 and the IC50 was determined as 1.85 µM.

Regarding REH (B-cell leukaemia, suspension), the AUC stood at 0.194 and the IC50 amounted to 0.129 µM.

Consider RF-48 (stomach, adherent), for which the AUC is 0.423 and the IC50 was determined as 0.601 µM.

With ROS-50 (B-cell leukaemia, suspension), the AUC was found to be 0.498 and the IC50 amounted to 0.986 µM.

As for “RPMI-6666 (Hodgkin lymphoma, suspension)”, the AUC stood at 0.436 and the half-inhibitory concentration (IC50) came out at 0.644 µM.

Turning to Raji (Burkitt lymphoma, suspension), the AUC is 0.521 and the IC50 was 1.14 µM.

On to “Ramos-2G6-4C10 (Burkitt lymphoma, suspension)”, for which the AUC came out at 0.314 and the IC50 is 0.331 µM.

As for SCH (stomach, adherent), the AUC came out at 0.9 and the IC50 was more than 16 µM.

For the cell line SF539 (glioma, adherent), the AUC amounted to 0.487 and the IC50 worked out at 0.925 µM.

Compound in a further assay: Cc1ccc(-n2nc(C(C)(C)C)cc2NC(=O)Nc2ccc(OCCN3CCOCC3)c3ccccc23)cc1 [BIRB 0796]
The assay is described as above. To be noted: top dose 10 µM; top dose inferred. As for the experimental part:
as §1
In the case of “NCI-H2081 (small cell lung carcinoma, suspension)”, the AUC stood at 0.984 and the 50% inhibitory concentration (IC50) is more than 10 µM.

For “NCI-H2135 (non-small cell lung carcinoma, adherent)”, the AUC came to 0.978 and the half-maximal inhibitory concentration (IC50) is more than 10 µM.

Take NCI-SNU-1 (stomach, suspension): the AUC came out at 0.985 and the IC50 is more than 10 µM.

Regarding “NKM-1 (acute myeloid leukaemia, suspension)”, the AUC was determined as 0.984 and the IC50 was more than 10 µM.

Consider “OCI-AML2 (acute myeloid leukaemia, suspension)”, for which the AUC came to 0.995 and the IC50 is more than 10 µM.

As for “OCI-M1 (acute myeloid leukaemia, suspension)”, the AUC was 0.995 and the IC50 is more than 10 µM.

In the case of OMC-1 (cervix, adherent), the AUC turned out to be 0.978 and the IC50 is more than 10 µM.

On to OPM-2 (myeloma, suspension), for which the AUC amounted to 0.994 and the IC50 is more than 10 µM.

In the case of “P30-OHK (lymphoblastic leukaemia, suspension)”, the AUC stood at 0.991 and the IC50 is more than 10 µM.

Take “P31-FUJ (acute myeloid leukaemia, suspension)”: the AUC came out at 0.996 and the IC50 is more than 10 µM.

For the cell line P32-ISH (Burkitt lymphoma, suspension), the AUC was determined as 0.995 and the IC50 was more than 10 µM.

In the case of “PF-382 (T-cell lymphoblastic leukaemia, suspension)”, the AUC came out at 0.991 and the IC50 was more than 10 µM.

Regarding PSN1 (pancreas, adherent), the AUC came to 0.988 and the IC50 is more than 10 µM.

In the case of RCC10RGB (kidney, adherent), the AUC is 0.944 and the IC50 was more than 10 µM.

With REH (B-cell leukaemia, suspension), the AUC was determined as 0.987 and the IC50 is more than 10 µM.

In the case of RF-48 (stomach, adherent), the AUC came out at 0.985 and the 50% inhibitory concentration (IC50) was more than 10 µM.

As for ROS-50 (B-cell leukaemia, suspension), the AUC stood at 0.985 and the IC50 is more than 10 µM.

For the cell line “RPMI-6666 (Hodgkin lymphoma, suspension)”, the AUC was 0.982 and the IC50 is more than 10 µM.

With Raji (Burkitt lymphoma, suspension), the AUC stood at 0.99 and the IC50 is more than 10 µM.

Consider “Ramos-2G6-4C10 (Burkitt lymphoma, suspension)”, for which the AUC amounted to 0.991 and the IC50 is more than 10 µM.

With SCH (stomach, adherent), the AUC was determined as 0.984 and the IC50 was more than 10 µM.
